Experiment in all cases: cell-based or functional assay
For experiment [1], the target named is hemagglutinin (HA) of influenza B/Lee/40 (Old) (influenza B virus).
The target in experiment [2] is hemagglutinin (HA) of influenza B/Brisbane/60/08 (Victoria) (influenza B virus).
The target in experiment [3] is hemagglutinin (HA) of influenza A/Aichi/2/68 (H3N2) (influenza A virus).
Experiment [4] concerns the target hemagglutinin (HA) of influenza A/WSN/33 (H1N1) (influenza A virus).
Experiment [5] has as its target hemagglutinin (HA) of influenza virus H9N2 A/HK/466419/09 (influenza A virus).
In experiment [6] the target is hemagglutinin (HA) of influenza virus B/Lee/40 (Old) (influenza B virus).
In experiment [7] the target is hemagglutinin (HA) of influenza virus H11N9 A/Northern Pintail/MPC2085/07 (influenza A virus).
The target of experiment [8] is hemagglutinin (HA) of influenza virus H1N1 A/California/07/09 (influenza A virus).
Experiment [9] addresses hemagglutinin (HA) of influenza virus H4 A/WF/HK/MPA892/06 (influenza A virus).
Experiment [10] deals with hemagglutinin (HA) of influenza virus H7N9 A/Anhui/1/13 (influenza A virus).
The target in experiment [11] is hemagglutinin (HA) of influenza virus H7N3 A/NIBRG/60 (A/mallard/Netherlands/12/00) (influenza A virus).
For experiment [12], the target named is hemagglutinin (HA) of influenza virus H6N1 A/Eurasian Wigeon/MPG1884/09 (influenza A virus).
The target of experiment [13] is hemagglutinin (HA) of influenza virus H8N4 A/Eurasian Wigeon/MPH571/08 (influenza A virus).
Experiment [14] concerns the target hemagglutinin (HA) of influenza virus B/Florida/04/06 (Yamagata) (influenza B virus).
For experiment [15], the target named is hemagglutinin (HA) of influenza virus H7N9 A/Shanghai/2/13 (influenza A virus).
The target in experiment [16] is hemagglutinin (HA) of influenza virus H10N7 A/Chick/Germany/N/49 (influenza A virus).
In experiment [17] the target is hemagglutinin (HA) of influenza virus H1N1 A/Puerto Rico/8/34-MA (influenza A virus).
The target in experiment [18] is hemagglutinin (HA) of influenza virus H3N2 A/HK/1/68-MA (influenza A virus).
Experiment [19] concerns the target hemagglutinin (HA) of influenza virus H3N2 A/Brisbane/10/07 (influenza A virus).
The target in experiment [20] is hemagglutinin (HA) of influenza virus H1N1 A/New Caledonia/20/99 (influenza A virus).
Experiment [21] addresses hemagglutinin (HA) of influenza virus B/Brisbane/60/08 (Victoria) (influenza B virus).
In experiment [22] the target is hemagglutinin (HA) of influenza virus H2N2 A/Guiyang/1/57 (influenza A virus).
Experiment [23] deals with hemagglutinin (HA) of influenza virus B/Harbin/7/94 (Yamagata) (influenza B virus).
The target of experiment [24] is hemagglutinin (HA) of influenza virus H5N1 A/Vietnam/1194/04 (influenza A virus).
Experiment [25] has as its target hemagglutinin (HA) of influenza virus H7N7 A/PR8 H7N7-NY (influenza A virus).
The target in experiment [26] is hemagglutinin (HA) of influenza virus B/Malaysia/2506/04 (Victoria) (influenza B virus).
The target of experiment [27] is hemagglutinin (HA) of influenza virus H3N2 A/Wisconsin/67/05 (influenza A virus).

B1: MD3609 (Fc fusion)
chain: EVQLVESGGGLVQPGGSLRLSCAVSISIFDIYAMDWYRQAPGKQRDLVATSFRDGSTNYADSVKGRFTISRDNAKNTLYLQMNSLKPEDTAVYLCHVSLYRDPLGVAGGMGVYWGKGALVTVSSGGGGSGGGGSEVQLVESGGGLVQAGGSLKLSCAASGRTYAMGWFRQAPGKEREFVAHINALGTRTYYSDSVKGRFTISRDNAKNTEYLEMNNLKPEDTAVYYCTAQGQWRAAPVAVAAEYEFWGQGTQVTVSSGGGGSGGGGSEVQLVESGGGLVQPGGSLRLSCAATGFTLENKAIGWFRQTPGSEREGVLCISKSGSWTYYTDSMRGRFTISRDNAENTVYLQMDSLKPEDTAVYYCATTTAGGGLCWDGTTFSRLASSWGQGTQVTVSSGGGGSGGGGSEVQLVESGGGLVQPGGSLKLSCAASGFTFSTSWMYWLRQAPGKGLEWVSVINTDGGTYYADSVKDRFTISRDNAKDTLYLQMSSLKSEDTAVYYCAKDWGGPEPTRGQGTQVTVSSAAA[gap - human IgG1 Fc]
Regarding B1, the Average neutralization titers in experiment [1] amounted to 21.9 nM; in experiment [2] it was 4.1 nM; in [3] it was 10.9 nM; in [4], 5.5 nM.

B2: MD2642 (Fc fusion)
chain: EVQLVESGGGLVQPGGSLRLSCAVSISIFDIYAMDWYRQAPGKQRDLVATSFRDGSTNYADSVKGRFTISRDNAKNTLYLQMNSLKPEDTAVYLCHVSLYRDPLGVAGGMGVYWGKGALVTVSSGGGGSGGGGSEVQLVESGGGLVQAGGSLKLSCAASGRTYAMGWFRQAPGKEREFVAHINALGTRTYYSDSVKGRFTISRDNAKNTEYLEMNNLKPEDTAVYYCTAQGQWRAAPVAVAAEYEFWGQGTQVTVSS[gap - human IgG1 Fc]GGGGSGGGGSEVQLVESGGGLVQPGGSLRLSCAATGFTLENKAIGWFRQTPGSEREGVLCISKSGSWTYYTDSMRGRFTISRDNAENTVYLQMDSLKPEDTAVYYCATTTAGGGLCWDGTTFSRLASSWGQGTQVTVSSGGGGSGGGGSEVQLVESGGGLVQPGGSLKLSCAASGFTFSTSWMYWLRQAPGKGLEWVSVINTDGGTYYADSVKDRFTISRDNAKDTLYLQMSSLKSEDTAVYYCAKDWGGPEPTRGQGTQVTVSS
B2: the Average neutralization titers in experiment [1] stood at 8.4 nM; in [2], 1.5 nM; in [3], 11 nM; in [4], 4.2 nM.

B3: MD2617 (Fc fusion)
chain: EVQLVESGGGLVQPGGSLRLSCAVSISIFDIYAMDWYRQAPGKQRDLVATSFRDGSTNYADSVKGRFTISRDNAKNTLYLQMNSLKPEDTAVYLCHVSLYRDPLGVAGGMGVYWGKGALVTVSSAAA[gap - human IgG1 Fc]GGGGSGGGGSEVQLVESGGGLVQPGGSLKLSCAASGFTFSTSWMYWLRQAPGKGLEWVSVINTDGGTYYADSVKDRFTISRDNAKDTLYLQMSSLKSEDTAVYYCAKDWGGPEPTRGQGTQVTVSS
For B3, the average neutralization titer is 25.1 nM in [5]; 1.4 nM in experiment [6]; 21.1 nM in [7]; 1.8 nM in experiment [8]; 35.5 nM in experiment [9]; 380 nM in experiment [10]. Moreover, the average neutralization titer turned out to be 72.1 nM in experiment [11]; 25.1 nM in experiment [12]; 12.5 nM in experiment [13]; 2.5 nM in experiment [14]; 391 nM in experiment [15]; 21.1 nM in experiment [16]. Besides, the average neutralization titer in experiment [17] is 6.3 nM; in experiment [18], 118 nM; in experiment [19], 27.5 nM; in experiment [20] it was 8.4 nM; in experiment [21], 2.1 nM; in experiment [22], 31.8 nM. The average neutralization titer in [23] stood at 7.5 nM; in experiment [24], 4.7 nM; in [25] it was 301 nM; in experiment [26], 8.3 nM; in [27], 499 nM.

Source of the values: patent publication US20190359693A1.
